This note sets out measurements from the supplement of paper PMC7125110.

± gives the standard error. For some of these results: Variants at the floor of the assay are shown more often than the library holds them. Where only a bound is given, the exact number is not on record here.

B1: glmS ribozyme (parent)
chain: AUAAAAGCGCCAGAACUACAGAAAUGUAGUUGACGAGGAGGAGGUUUAUCGAAUUUUCGGCGGAUGCCUCCAAA

Settings in all cases: with glucosamine-6-phosphate
Data set [1] covers variants of B1. The data set can be described thus: self-cleavage kobs at 640 uM GlcN6P; higher = faster cleavage; RNA array. In outline: (§1)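 E. coli RNA polymerase transcribed barcoded ribozyme variants in situ on sequenced MiSeq chips, which were tracked via a hybridised Cy3 probe at 37 °C. Tiles were imaged over ~14 h after glucosamine-6-phosphate (40 μM to 10 mM) in HEPES/KCl/Mg(OAc)2 buffer was flowed in. Normalised per-tile medians were fit to one- or two-exponential decays for kobs, and kcat and KM came from weighted Michaelis–Menten fits.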

Variants of B1 are the subject of data set [2]. The data set can be described thus: self-cleavage kobs at 2500 uM GlcN6P; higher = faster cleavage; RNA array. In outline:
as §1

Data set [3] covers variants of B1. The data set can be described thus: self-cleavage kobs at 160 uM GlcN6P; higher = faster cleavage; RNA array. In outline:
as §1

Variants of B1 are the subject of data set [4]. The data set can be described thus: self-cleavage kobs at 10000 uM GlcN6P; higher = faster cleavage; RNA array. In outline:
as §1

With G62C A64U G66U, the “self-cleavage kobs at 640 uM GlcN6P” value with glucosamine-6-phosphate [1] was less than 1e-05 s⁻¹. The “self-cleavage kobs at 2500 uM GlcN6P” value in the data set with glucosamine-6-phosphate [2] is less than 1e-05 s⁻¹.

Consider U31A G44U A52U, for which the “self-cleavage kobs at 160 uM GlcN6P” value with glucosamine-6-phosphate [3] is less than 1e-05 s⁻¹. Moreover, in the data set with glucosamine-6-phosphate [2], the “self-cleavage kobs at 2500 uM GlcN6P” value was less than 1e-05 s⁻¹.

Turning to C10U G38A U46A, in the data set with glucosamine-6-phosphate [3], the “self-cleavage kobs at 160 uM GlcN6P” value was less than 1e-05 s⁻¹.

Turning to G13C U30G, in the data set with glucosamine-6-phosphate [3], the “self-cleavage kobs at 160 uM GlcN6P” value was less than 1e-05 s⁻¹.

As for C10U A12C G40C, the “self-cleavage kobs at 160 uM GlcN6P” value with glucosamine-6-phosphate [3] is less than 1e-05 s⁻¹. Also, the “self-cleavage kobs at 2500 uM GlcN6P” value with glucosamine-6-phosphate [2] was less than 1e-05 s⁻¹.

With G9A A33G G41U, in the data set with glucosamine-6-phosphate [3], the “self-cleavage kobs at 160 uM GlcN6P” value is less than 1e-05 s⁻¹. For the same variant, the “self-cleavage kobs at 2500 uM GlcN6P” value with glucosamine-6-phosphate [2] was less than 1e-05 s⁻¹.

In the case of C8G A33U G40U C68U, the “self-cleavage kobs at 160 uM GlcN6P” value in the data set with glucosamine-6-phosphate [3] was less than 1e-05 s⁻¹. Besides, the “self-cleavage kobs at 2500 uM GlcN6P” value with glucosamine-6-phosphate [2] was less than 1e-05 s⁻¹.

For G13A C50U, the “self-cleavage kobs at 160 uM GlcN6P” value in the data set with glucosamine-6-phosphate [3] is less than 1e-05 s⁻¹. For the same variant, the “self-cleavage kobs at 10000 uM GlcN6P” value in the data set with glucosamine-6-phosphate [4] is less than 1e-05 s⁻¹.

Turning to G13A C16A A36U G40A C68G, the “self-cleavage kobs at 160 uM GlcN6P” value with glucosamine-6-phosphate [3] was less than 1e-05 s⁻¹. In addition, the “self-cleavage kobs at 2500 uM GlcN6P” value with glucosamine-6-phosphate [2] is less than 1e-05 s⁻¹.

As for C11G G29U, the “self-cleavage kobs at 160 uM GlcN6P” value with glucosamine-6-phosphate [3] is less than 1e-05 s⁻¹.

For C10U A12C A15C C68G C70G, the “self-cleavage kobs at 160 uM GlcN6P” value with glucosamine-6-phosphate [3] is less than 1e-05 s⁻¹.

For G9A C16A G35C A39U C71A, in the data set with glucosamine-6-phosphate [3], the “self-cleavage kobs at 160 uM GlcN6P” value is less than 1e-05 s⁻¹. Besides, the “self-cleavage kobs at 2500 uM GlcN6P” value in the data set with glucosamine-6-phosphate [2] is less than 1e-05 s⁻¹.

With C8A C16U U31C G38A U56C, in the data set with glucosamine-6-phosphate [3], the “self-cleavage kobs at 160 uM GlcN6P” value is less than 1e-05 s⁻¹. The “self-cleavage kobs at 10000 uM GlcN6P” value in the data set with glucosamine-6-phosphate [4] is less than 1e-05 s⁻¹.

Take A6U G44U U46G: the “self-cleavage kobs at 160 uM GlcN6P” value with glucosamine-6-phosphate [3] is less than 1e-05 s⁻¹. The “self-cleavage kobs at 10000 uM GlcN6P” value in the data set with glucosamine-6-phosphate [4] was less than 1e-05 s⁻¹.

For A14C G37A C58G, the “self-cleavage kobs at 160 uM GlcN6P” value with glucosamine-6-phosphate [3] is less than 1e-05 s⁻¹. For the same variant, the “self-cleavage kobs at 2500 uM GlcN6P” value with glucosamine-6-phosphate [2] was less than 1e-05 s⁻¹.

As to G9A G38A U55A C68U, the “self-cleavage kobs at 160 uM GlcN6P” value in the data set with glucosamine-6-phosphate [3] is less than 1e-05 s⁻¹. For the same variant, the “self-cleavage kobs at 2500 uM GlcN6P” value in the data set with glucosamine-6-phosphate [2] is less than 1e-05 s⁻¹.

For the variant U31C C58U, the “self-cleavage kobs at 160 uM GlcN6P” value with glucosamine-6-phosphate [3] is less than 1e-05 s⁻¹. Moreover, the “self-cleavage kobs at 2500 uM GlcN6P” value with glucosamine-6-phosphate [2] came to 2.64e-05 ± 1.3e-05 s⁻¹.

With A6U C11U, the “self-cleavage kobs at 160 uM GlcN6P” value with glucosamine-6-phosphate [3] is less than 1e-05 s⁻¹.

In the case of G60U U69A, in the data set with glucosamine-6-phosphate [1], the “self-cleavage kobs at 640 uM GlcN6P” value is less than 1e-05 s⁻¹. Further, in the data set with glucosamine-6-phosphate [2], the “self-cleavage kobs at 2500 uM GlcN6P” value was less than 1e-05 s⁻¹. Moreover, the “self-cleavage kobs at 10000 uM GlcN6P” value with glucosamine-6-phosphate [4] was less than 1e-05 s⁻¹.

As for C8A G29C G32C, the “self-cleavage kobs at 160 uM GlcN6P” value with glucosamine-6-phosphate [3] is less than 1e-05 s⁻¹.

Regarding A6G C16A, the “self-cleavage kobs at 160 uM GlcN6P” value with glucosamine-6-phosphate [3] is less than 1e-05 s⁻¹.

As to C10U G43A, in the data set with glucosamine-6-phosphate [3], the “self-cleavage kobs at 160 uM GlcN6P” value is less than 1e-05 s⁻¹. Moreover, in the data set with glucosamine-6-phosphate [2], the “self-cleavage kobs at 2500 uM GlcN6P” value was less than 1e-05 s⁻¹. In addition, the “self-cleavage kobs at 10000 uM GlcN6P” value with glucosamine-6-phosphate [4] is less than 1e-05 s⁻¹.

Regarding G13C G40C A48C U55A, the “self-cleavage kobs at 160 uM GlcN6P” value in the data set with glucosamine-6-phosphate [3] was less than 1e-05 s⁻¹.

G7U A14G U56G C67G: the “self-cleavage kobs at 160 uM GlcN6P” value with glucosamine-6-phosphate [3] was less than 1e-05 s⁻¹. Further, the “self-cleavage kobs at 2500 uM GlcN6P” value with glucosamine-6-phosphate [2] was less than 1e-05 s⁻¹.

As for C8G G35U G44A, in the data set with glucosamine-6-phosphate [3], the “self-cleavage kobs at 160 uM GlcN6P” value was less than 1e-05 s⁻¹. In addition, the “self-cleavage kobs at 2500 uM GlcN6P” value with glucosamine-6-phosphate [2] is less than 1e-05 s⁻¹.

Consider G7A G13C U30C A39C, for which, in the data set with glucosamine-6-phosphate [3], the “self-cleavage kobs at 160 uM GlcN6P” value is less than 1e-05 s⁻¹. The “self-cleavage kobs at 2500 uM GlcN6P” value in the data set with glucosamine-6-phosphate [2] was less than 1e-05 s⁻¹.

Take G9A A33U: in the data set with glucosamine-6-phosphate [3], the “self-cleavage kobs at 160 uM GlcN6P” value is less than 1e-05 s⁻¹.

With C8U G35A U49C A64C C71A, the “self-cleavage kobs at 160 uM GlcN6P” value with glucosamine-6-phosphate [3] is less than 1e-05 s⁻¹.

On to C8G A39U U69A, for which the “self-cleavage kobs at 160 uM GlcN6P” value with glucosamine-6-phosphate [3] was less than 1e-05 s⁻¹.

Turning to G29U G51C A53G G63A U65G, in the data set with glucosamine-6-phosphate [3], the “self-cleavage kobs at 160 uM GlcN6P” value is less than 1e-05 s⁻¹.

G9A A14U A36C U46G: the “self-cleavage kobs at 160 uM GlcN6P” value with glucosamine-6-phosphate [3] is less than 1e-05 s⁻¹. Besides, the “self-cleavage kobs at 2500 uM GlcN6P” value with glucosamine-6-phosphate [2] is less than 1e-05 s⁻¹.
